{"source": "the supplement of paper PMC4604168 (melanoma cell lines)", "note": "The other results are listed elsewhere or left out. Many values rest on one well or one pass, so single values are uncertain.", "data": [{"tested_on": "MeWo", "test": "cell count relative to DMSO control; melanoma cells; higher = more viable cells", "details": "library dose: low library concentration; 72 h", "units": {"cell count": "%"}, "values": [{"compound": "O=C(/C=C/c1cccnc1)NCCCCC1CCN(C(=O)c2ccccc2)CC1", "note": "+ C#Cc1cccc(Nc2ncnc3cc(OCCOC)c(OCCOC)cc23)c1 [erlotinib] (first compound 0.01 µM, partner dose 0.8 µM);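 further: cell number obtained by counting DAPI-stained nuclei in high-throughput microscope images with image analysis software, screen run in 1,536-well plates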", "cell count": 106}, {"compound": "CC1(C)CCC(c2ccc(Cl)cc2)=C(CN2CCN(c3ccc(C(=O)NS(=O)(=O)c4ccc(N[C@H](CCN5CCOCC5)CSc5ccccc5)c(S(=O)(=O)C(F)(F)F)c4)cc3)CC2)C1", "note": "+ Cn1cnc2c(F)c(Nc3ccc(Br)cc3Cl)c(C(=O)NOCCO)cc21 [selumetinib] (first compound 0.4 µM, partner dose 0.015 µM)", "cell count": 61.5}, {"compound": "O=C(/C=C/c1cccnc1)NCCCCC1CCN(C(=O)c2ccccc2)CC1", "note": "+ Cn1cnc2c(F)c(Nc3ccc(Br)cc3Cl)c(C(=O)NOCCO)cc21 [selumetinib] (first compound 0.01 µM, partner dose 0.015 µM)", "cell count": 93.8}, {"compound": "Cc1ccc(Nc2nccc(N(C)c3ccc4c(C)n(C)nc4c3)n2)cc1S(N)(=O)=O", "note": "[Pazopanib] + CC(C)CCN1c2nc(Nc3cc(F)c(O)c(F)c3)ncc2N(C)C(=O)C1C [BID1870] (first compound 0.4 µM, partner dose 0.2 µM)", "cell count": 103}, {"compound": "CC1(C)CCC(c2ccc(Cl)cc2)=C(CN2CCN(c3ccc(C(=O)NS(=O)(=O)c4ccc(N[C@H](CCN5CCOCC5)CSc5ccccc5)c(S(=O)(=O)C(F)(F)F)c4)cc3)CC2)C1", "note": "+ COc1ccc2c(c1)CCC1C2CCC2(C)C(NCCCCCCN3C(=O)C=CC3=O)CCC12 [U73122] (first compound 0.4 µM, partner dose 0.4 µM)", "cell count": 71.5}]}]}
